Results: the RNAGym collection of RNA variant scans (doi:10.7554/elife.90254)
The source gives no read counts; variants with many changes may rest on few reads.

B1: OR4K15 (parent)
chain: GUUAACGGUCAUAGGCCAUGGAAACUAGGAGCACCAUUUCGCUGCCAGUGAAGAAAUGAACAAAGAAAAUCUGGGCCAGGCAGGCAUCAAAAGAAAUAGUCUUGCGCUCAACCAGAAAGUCUGUAAUCAUUUUAAGGGUA

Variants of: B1
Assay: self-cleavage, relative activity (ratio to wild type); higher = more cleavage; in vitro, sequencing; the parent is a self-cleaving ribozyme
GUUAACGGUCAUAGGCCAUGGAAACUAGGAGCACCAUUUCGCUGCCAGUGAAGAAGUGAACAAAGAAAAUCUGGGCCAGGCAGGCAUCAAAAGAAAAAGUCUUGCGCUCAACCAGAAAGUCUGUAAUCACUUUAAGGGUA [A56G U97A U130C] gave a self-cleavage of 0.67.
With GUUAACGGUCAUAGGCCAUGGGAACUAGGAGCACCAUUUCGCUGCCAGUGAAGAAAAGAACAAAGAAAGUCUGGGCCAGGCAGGCAUCAAAAGAAAUAGUCUUGCGCUCAACCAGAAAGUCUGUAAUCAUUUUAAGGGUA [A22G U57A A69G] the self-cleavage was 0.82.
In the case of GUGAACGGUCAUAGGCCAUGGAAACUAGGAGCUCCAUUUCGCUGCCAGUGAAGAAAUGAGCAAAGAAAAUCUGGGCCAGGCAGGCAUCAGAAGAAAUAGUCUUGCGCUCAACCAGAAAGUCCGUAAUCAUUUUAAGGGUA [U3G A33U A60G A90G U122C], the self-cleavage is reported as 0.27.
In the case of GUUAACGGUCAUAGGCCAUGGAAACUAGGAGCACCGUUUCGCAGCCGGUGAAGAAGUGAACAAAGAAAAUCUGGGCCAGGCAGGCAUCAAAAGAAAUAGUCUUGCGCUCAACCAGAAAGUCUGUAAUCAUUUUAAGGGUA [A36G U43A A47G A56G], the self-cleavage is reported as 1.85.
GUUAACGGUCAUAGGCCAUGGGAACUAGGAGCACCACUACGCUGCCAGUGAAGAAAUGAACAAAGAAAAUCUGGGCCAGGCAGGCAUCAAAAGAAAUAGUCUUGCGCUCAACCAGAAAGUCUGUAAUCAUUUUAAGGGUA [A22G U37C U39A] gave a self-cleavage of 1.15.
GUUAACGGUCAUAGGCCAUGGUAACUAGGAGCACCACUUCGCUGCCAGUGAGGAAAUGAACAAAGAAAAUCUGGGCCAGGCAGGCAUCAAAAGAAAUAGUCUUGCGCUCAACCAGAAAGUCUGUAAUCAUUUUAAGGGUA [A22U U37C A52G] gave a self-cleavage of 0.65.
In the case of GUUAACGGUCAUAGGCCAUGGAAACUAGGAGCUCCAUCUCGCUGCCAGUGAAGUAAUGAACGAAGAAAAUCUGGGCCAGGCAGGCAUCAAAAGAAAUAGUCUAGCGCUCAACCAGAAAGUCUGUAAUCGUUUUAAGGGUA [A33U U38C A54U A62G U103A A129G], the self-cleavage is reported as 0.56.
GUUAACGGUCAUAGGCCAUGGAGACUAGGAGCACCAUUUCGCUGCCAGUGGAGAAAUGAACAAGGAAAAUCUGGGCCAGGCAGGCAUCAAAAGAAGUAGUCUUGCGCUCAACCAGAAAGUCUGUAAUCAUUUUAUGGGUA [A23G A51G A64G A96G A135U] showed a self-cleavage of 0.89.
Variant GUUAACGGUCAUAGGCCAUGGAAACUAGGAGCACCAUUUCGCUGCCAGUGAAGAAAUGAACAAAGAAAAUCUGGGCCAGGCAGGCAUCAAAAGAAAUAGUCUUGCGCUCAACCGGAAGGUCUAUAAUCAUUUUAAGGGUA [A114G A118G G123A] has a self-cleavage of 0.25.
Variant GUUAACGGUCAUAGGCCGUGGAAACUAGGAGAACCAUUUCGCUGCCAGUGAAGAAAUGAACAAAGAAAAUCUGGGCCAGGCAGGCAUCAAAAGAAAUAGUCUUGCGCUCUACCUGAAUGUCUGUAAUCAUUUUAAGGGUA [A18G C32A A110U A114U A118U] has a self-cleavage of 0.02.
For GUUAACGGUCAUAGGCCAUGGAAACUAGGAGCACAAUUUCGCUGCCAGUGGAGAAAUGAACAAAGAAAAUCUGGGCCAGGCAGGCAUAAAAAGAAAUAGUCUUGCGCUCAACCAGAAAAUCUGUAAUCAUUUUAAGGGUA [C35A A51G C88A G119A], the self-cleavage was 2.46.
With GUUAACGGUCGUAGGCCUUGGAAACUAGGAGCGCCAUUUCGCUGCCAGUGAAGAAAUGAACAAAGAAAAUCUGGGCCAGGCAGGCAUCAAAAGAAAUAGUCUUGCGCUCAACCAGAAAGUCUGUAAUCAUUUUAAGGGUA [A11G A18U A33G] the self-cleavage was 1.13.
Work on GUUAACGGUCAUAGGCCAUGGAAACUAGGAACACCAUUUCGCUGCCAGUGAAGAAAUGAACAAAGAAAAUCUGGGCCAGGCAGGCAUCAAAAGAAAUAGCCCUGCGCUCAACCAGAAAGUCCGUAUUCAUUUUAAGGGUA [G31A U100C U102C U122C A126U] yielded a self-cleavage of 1.5.
With GUUAACGGUCAUAGGCCGUGGAAACUAGGAGCACCAUUUCGCUGCCAGUGAAGAAAUGAACAAAGAAAAUCUGGGCCAGGCAGGCAUCAAAAGAAAUAGUCCUGCGCUCAACCAGGAAGCCUGUAAUCAUUUUAAGGGUA [A18G U102C A116G U120C] the self-cleavage was 0.16.
With GUUAACGGUCUUAGGCCAUGGAAACUAGGAGCACCAUUUCGCUGCCAGUGAAGAAGUGAACAAAGAAAAUCUGGGCCAGGCAGGCAUCAAAAGAAAUAGUCUUGCGCUCAACCAGUAAGUCUGUAAUCAUUUUAAGGGAA [A11U A56G A116U U139A] the self-cleavage was 0.32.
GUUAACGGUCAUAGGCCAUGGAAACUGGGAGCACCAUUUCGCUGCCAGUGAGGAAAUGAACAAAGAGAAUCUGGGCCGGGCUGGCAUCAAAGGAAAUAGUCUUGCGCUCAACCAGAAAGUCUGUAAUCAUUUUAAGGGUA [A27G A52G A67G A78G A82U A92G] showed a self-cleavage of 0.32.
In the case of GUUAACGGUCAUUGGCCACGGAAACUAGGAGCACCAUUUCGCUGCCAGUGAAGAAAUGAACAAAGAAAAUCUGGGCCAGGCAGGCAUCAAAAGAAAUAGUCUCGCGCUCAACCAGAAAGUCUGUAAUCAUUUUAAGGGUA [A13U U19C U103C], the self-cleavage is reported as 0.98.
Variant GUUAACGGUCAUAGGCCGUGGAAACUAGGAGCACCAUUUCGCUGCCAGUGAAGAAAUGAACAAAGAAAACCUGGGCCAGGCAGGCAUCAAAAGAAAUAGUCUUGCGCUAAGCCAGAAAGUCUGUAAUCAUUUUAAGGGUA [A18G U70C C109A A111G] has a self-cleavage of 0.04.
With GUUAACGGUCAUAGGCCAUGGAAACUUGGAGCACCAUUUCGCUGCCAGUGAAGAAAUGAACAAAGAAAAUCUGGGCCAGGCAGGCAUCAAAGGAAAUAGUCUUGCGCUCAACCAGAAAGUCUGCAAUCAUUUUAAGGGUA [A27U A92G U124C] the self-cleavage was 1.12.
GUUAACGGUCAUAGGCCAUGGAAACUAGGAGCACCAUUUCGCUGCCAGUGAAGAAAUGAACAAAGAAAAUCUGGGCCAGGCAGGCAUCGAAAGAAAUAGUCUUGCGCUCAACCAGAAAGUCUGUACCCAUUUUAAGGGUA [A89G A126C U127C] gave a self-cleavage of 0.25.
